Data as given in the RNAGym collection of RNA variant scans (doi:10.1093/nar/gkz1192).
Read counts are not given, so values of variants with three or more changes are uncertain.

B1: CPEB3 Ribozyme (parent)
chain: UAACAGGGGGCCACAGCAGAAGCGUUCACGUCGCAGCCCCUGUCAGAUUCUGGUGAAUCUGCGAAUUCUGCUGUAUAUCUC

Variants of: B1
Assay: self-cleavage, relative activity (ratio to wild type); higher = more cleavage; in vitro, sequencing
Procedure, shortened: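 For each CPEB3 ribozyme variant, relative activity is its cleaved/total read fraction divided by the unmutated ribozyme's. Barcoded error-prone PCR libraries were transcribed by T7 RNA polymerase (5 hours, 37°C) and held in DNase I for 15 min before an EDTA stop, with cleavage occurring throughout. Template-switching reverse transcription and Illumina sequencing were used to read the RNAs. A 5-read minimum applied, and results are the mean of three batches.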
In the case of A20G U60C A64U, the self-cleavage is reported as 0.13. Variant A20G U60C A65C U74C has a self-cleavage of 0.13. With A20G U60C U69A the self-cleavage was 0.15. With A20G U60C U72C the self-cleavage was 0.35. In the case of A20G U66A G73A U80C, the self-cleavage is reported as 1.05. A20G U66G U80C gave a self-cleavage of 0.21. With A20G U67C U78C the self-cleavage was 0.85. A20G U72A U78C showed a self-cleavage of 0.5. A20U A21G A45G U51C A64G showed a self-cleavage of 0.24. Variant A20U A21G G73A has a self-cleavage of 0.3. With A20U A21G U25C U51G G55A the self-cleavage was 0.18. Variant A20U A21G U41C A57U U67A has a self-cleavage of 0.32. With A20U A21U A35U U72A the self-cleavage was 0.15. For A20U A21U C23U A47G U51A U69C, the self-cleavage was 0.03. Variant A20U A21U G24C A47G U80C has a self-cleavage of 0.24. In the case of A20U A28C G42A, the self-cleavage is reported as 0.08. In the case of A20U A28C U66C, the self-cleavage is reported as 0.43. A20U A28G A45U showed a self-cleavage of 0.14. A20U A28G A47U U58C U72G gave a self-cleavage of 0.28. With A20U A28G A56U U66C U78C the self-cleavage was 0.17. Variant A20U A28G A65U has a self-cleavage of 0.39. For A20U A28G U31A A64G A65G, the self-cleavage was 0.1. A20U A28G U51A U69C gave a self-cleavage of 0.34. In the case of A20U A28G U51C, the self-cleavage is reported as 0.15. Variant A20U A28G U54A C62A U67C U72C has a self-cleavage of 0.05. For A20U A28U A35G A56G, the self-cleavage was 0.27. With A20U A28U A45G U76A the self-cleavage was 0.32. A20U A28U A56U gave a self-cleavage of 0.21. A20U A28U C34G A57G U72C U78C gave a self-cleavage of 0.22. In the case of A20U A28U G33U U41A, the self-cleavage is reported as 0.21. In the case of A20U A28U U41C A47G A56G U58C U72C, the self-cleavage is reported as 0.14. Variant A20U A28U U41C U49C A64U U66C U67A has a self-cleavage of 0.06. A20U A35G A56G A57G U69A gave a self-cleavage of 0.25. A20U A35G C59A showed a self-cleavage of 0.31. A20U A35U U49C U60C A65G showed a self-cleavage of 0.06. Work on A20U A45C G46A A65U yielded a self-cleavage of 0.08. A20U A45G A47U U69G showed a self-cleavage of 0.26. With A20U A45G U54G A57U U60C G73A the self-cleavage was 0.3. In the case of A20U A45G U58A, the self-cleavage is reported as 0.06. A20U A45U A64G U66C showed a self-cleavage of 0.14. In the case of A20U A45U U60A, the self-cleavage is reported as 0.25. Work on A20U A47G G52U yielded a self-cleavage of 0.42. Work on A20U A47G U60C U74A A77G yielded a self-cleavage of 0.06. Variant A20U A56G U74A has a self-cleavage of 0.4. In the case of A20U A56U U60A, the self-cleavage is reported as 0.31. A20U A57G A77C showed a self-cleavage of 0.31. Variant A20U C23A A28U U41A has a self-cleavage of 0.25. For A20U C23U U26C C32U A65C, the self-cleavage was 0.14. A20U C29A A35U U51A A77G U78C showed a self-cleavage of 0.06. In the case of A20U C29A C50U, the self-cleavage is reported as 0.21. A20U C34G U41A G46A U58C C68G showed a self-cleavage of 0.06. Variant A20U C37U U41A U48C C62G U74G has a self-cleavage of 0.05. For A20U C39A U41C A57G, the self-cleavage was 0.13. Work on A20U C39U A45G yielded a self-cleavage of 0.18. For A20U C39U A45U A56U A77U, the self-cleavage was 0.15. For A20U C40G A56U U60A, the self-cleavage was 0.13. Work on A20U G22C G63U U74C yielded a self-cleavage of 0.25. Work on A20U G24A U26C U58C U67C U72C yielded a self-cleavage of 0.21. A20U G30U U49G gave a self-cleavage of 0.12. A20U G33A U41C U66C showed a self-cleavage of 0.1. Variant A20U G36A G53C U66C has a self-cleavage of 0.08. For A20U U25A A28G, the self-cleavage was 0.09. For A20U U25A C32A C34A A65G, the self-cleavage was 0.07. With A20U U25A U26A the self-cleavage was 0.08. For A20U U25C A35U C81U, the self-cleavage was 0.04. Work on A20U U25C C29U A35G U41A G53A yielded a self-cleavage of 0.18. A20U U26A A45G A57C gave a self-cleavage of 0.17. In the case of A20U U26A G33A U48C G61A G63A A75U, the self-cleavage is reported as 0.03. Work on A20U U26A G33A U48C U54G A64U yielded a self-cleavage of 0.06. For A20U U26A U41A U49C A65U, the self-cleavage was 0.07. Variant A20U U26C A28G U41A U74C has a self-cleavage of 0.21. Work on A20U U26C G55C U74A yielded a self-cleavage of 0.26. In the case of A20U U26C U31C G42A U60C, the self-cleavage is reported as 0.24. Work on A20U U26C U31C U43C U60C yielded a self-cleavage of 0.17. Work on A20U U26C U48A U69C yielded a self-cleavage of 0.31. A20U U26C U66C gave a self-cleavage of 0.09. For A20U U26G C37U U67C U74C, the self-cleavage was 0.06. For A20U U31A A35G A57C, the self-cleavage was 0.16. Variant A20U U31A G36U U67C U74C has a self-cleavage of 0.25. Work on A20U U31C A35U A64C yielded a self-cleavage of 0.1. For A20U U31C A57G, the self-cleavage was 0.08. A20U U31C U41A U43C A57G A65G U78C showed a self-cleavage of 0.05. A20U U41A U58C G63A gave a self-cleavage of 0.02. For A20U U41A U60A A64G U69A U76C, the self-cleavage was 0.03. Variant A20U U41A U66G U74C A75C has a self-cleavage of 0.05. Variant A20U U41A U69C has a self-cleavage of 0.17. Work on A20U U41C A47G A57C yielded a self-cleavage of 0.14. A20U U41C A64U U72C A75G gave a self-cleavage of 0.12. Work on A20U U41C A77G yielded a self-cleavage of 0.27. Work on A20U U41C U49C A56G U74C yielded a self-cleavage of 0.42. Work on A20U U41C U49C A56U yielded a self-cleavage of 0.16. In the case of A20U U41C U49C U72A, the self-cleavage is reported as 0.31. With A20U U43A A45G C79A U80C the self-cleavage was 0.3. A20U U43C C71U showed a self-cleavage of 0.15. A20U U43C G53A U72A showed a self-cleavage of 0.1. Variant A20U U43C U66C U69A has a self-cleavage of 0.21. With A20U U48C A57G the self-cleavage was 0.29. Work on A20U U48C U74A U80A yielded a self-cleavage of 0.13. Variant A20U U49C A56G has a self-cleavage of 0.33. With A20U U49C A57U U72C the self-cleavage was 0.44. For A20U U49C C59U, the self-cleavage was 0.11. Variant A20U U51C A57G A64U has a self-cleavage of 0.1. With A20U U51C A64U the self-cleavage was 0.16. A20U U54C C59A A77U gave a self-cleavage of 0.17. A20U U54C C79A showed a self-cleavage of 0.39. Variant A20U U58C U60C C62A U72A has a self-cleavage of 0.11. For A20U U58G U60A A64U, the self-cleavage was 0.14. With A20U U60C G70A the self-cleavage was 0.11. A20U U66C U72A A75G U78C gave a self-cleavage of 0.1. With A20U U66G U74C the self-cleavage was 0.49. Work on A20U U69A U72C yielded a self-cleavage of 0.16. A20U U69C U74C A77G gave a self-cleavage of 0.12. In the case of A20U U74A C79A, the self-cleavage is reported as 0.64. A21C A28U G33A U43A C59U U60C U66A showed a self-cleavage of 0.11. Variant A21C A35G C44A U60C U69C U80A has a self-cleavage of 0.13. In the case of A21C A35G C81A, the self-cleavage is reported as 0.57. A21C A65G A77G U80A gave a self-cleavage of 0.17. Work on A21C C40A U41C A56U A64G yielded a self-cleavage of 0.14. Variant A21C G22A U60G has a self-cleavage of 0.42. In the case of A21C G24A U60C, the self-cleavage is reported as 0.13. With A21C G30C C38U U41C the self-cleavage was 0.16. Work on A21C G33U C39A yielded a self-cleavage of 0.19. For A21C U25C A35G, the self-cleavage was 0.69. For A21C U25C A45G U48C A65G A77G, the self-cleavage was 0. Work on A21C U25C U48A yielded a self-cleavage of 0.21. A21C U25C U51G U72A A77G gave a self-cleavage of 0.09. With A21C U26C U49C the self-cleavage was 0.07. A21C U41A A47G A64G showed a self-cleavage of 0.07. In the case of A21C U51A A57G C71G U78C U80C, the self-cleavage is reported as 0.04. A21G A28G A35G A56G A57G gave a self-cleavage of 1.27. A21G A28G A35G U72C G73A showed a self-cleavage of 0.85. A21G A28G A56G showed a self-cleavage of 0.58. For A21G A28G C62U G70A, the self-cleavage was 0.1. A21G A28G G30C U60C A65U showed a self-cleavage of 0.06. A21G A28G U31C U43A G53C A64G U78C gave a self-cleavage of 0.03. A21G A28G U41C U69A gave a self-cleavage of 0.28. Work on A21G A28G U43A A57G yielded a self-cleavage of 0.31. Variant A21G A28G U43C U69A U72C has a self-cleavage of 0.12. For A21G A28G U48C U60A U80A, the self-cleavage was 0.06. For A21G A28G U51C, the self-cleavage was 0.19. In the case of A21G A28U A35G U66C, the self-cleavage is reported as 1.19. Variant A21G A28U A45G U49C U72C has a self-cleavage of 0.07. Variant A21G A28U A47U U51C A64U U76A has a self-cleavage of 0.08. For A21G A28U C39A G46C A57G, the self-cleavage was 0.07. A21G A28U U41C U78C gave a self-cleavage of 0.37. A21G A35C U54C U69C gave a self-cleavage of 0.06. A21G A35G A45G U67A showed a self-cleavage of 0.23. A21G A35G A57G U72C gave a self-cleavage of 1.17. A21G A35G C39A U49A U76C A77C gave a self-cleavage of 0.04. A21G A35G U43A A75U U80C showed a self-cleavage of 1.2. A21G A35G U43C A56G A77G gave a self-cleavage of 0.73. A21G A35G U54C G63C showed a self-cleavage of 1.19. Variant A21G A35G U54C U58C U72C has a self-cleavage of 0.31. In the case of A21G A35G U69G U76C, the self-cleavage is reported as 1.1. In the case of A21G A35U A56G U69C, the self-cleavage is reported as 0.12. With A21G A35U U49G U60C U72G A77U the self-cleavage was 0.02. In the case of A21G A35U U58C, the self-cleavage is reported as 0.39. For A21G A35U U69A, the self-cleavage was 0.1. For A21G A35U U72C, the self-cleavage was 0.14. A21G A45G A65G U66C showed a self-cleavage of 0.2. Variant A21G A45G A75G has a self-cleavage of 0.44. A21G A45G U49G A56G U69A A75G gave a self-cleavage of 0.22. A21G A45G U60C U67C U72C showed a self-cleavage of 0.11. A21G A45G U74C showed a self-cleavage of 0.8. In the case of A21G A45G U80C, the self-cleavage is reported as 0.3. For A21G A45U U49C U66C U72C U76C, the self-cleavage was 0.04. Work on A21G A45U U51A A75U yielded a self-cleavage of 0.09.
